In PubChem BioAssay AID504332 (National Center for Advancing Translational Sciences (NCATS), 2011):
Hit rate of the full screen: of about 350,000 compounds, about 31,000 (8.9%) were called active. The shares of active, inactive and inconclusive entries below differ from those in the screen. Calls follow the shape of the dose curve; as a rule, active = well fitted inhibition curve with a large enough effect; inconclusive = small, poorly fitted or top-dose-only effect; inactive = no such curve, though single readings can be large or run the other way. A potency beside an inconclusive call is a rough fit, not a confirmed value.

target: Histone-lysine N-methyltransferase EHMT2 (Homo sapiens) (UniProt Q96KQ7); test: qHTS Assay for Inhibitors of Histone Lysine Methyltransferase G9a; conditions: G9a H3K9 monomethylation, AlphaScreen, 2 h; activity, negative = inhibition: at 59 µM (top of the series) unless noted; also: nearly all actives have a fitted effect of over 75% in size
UniProt Q96KQ7, sequence (Q96KQ7 whole entry, looked up): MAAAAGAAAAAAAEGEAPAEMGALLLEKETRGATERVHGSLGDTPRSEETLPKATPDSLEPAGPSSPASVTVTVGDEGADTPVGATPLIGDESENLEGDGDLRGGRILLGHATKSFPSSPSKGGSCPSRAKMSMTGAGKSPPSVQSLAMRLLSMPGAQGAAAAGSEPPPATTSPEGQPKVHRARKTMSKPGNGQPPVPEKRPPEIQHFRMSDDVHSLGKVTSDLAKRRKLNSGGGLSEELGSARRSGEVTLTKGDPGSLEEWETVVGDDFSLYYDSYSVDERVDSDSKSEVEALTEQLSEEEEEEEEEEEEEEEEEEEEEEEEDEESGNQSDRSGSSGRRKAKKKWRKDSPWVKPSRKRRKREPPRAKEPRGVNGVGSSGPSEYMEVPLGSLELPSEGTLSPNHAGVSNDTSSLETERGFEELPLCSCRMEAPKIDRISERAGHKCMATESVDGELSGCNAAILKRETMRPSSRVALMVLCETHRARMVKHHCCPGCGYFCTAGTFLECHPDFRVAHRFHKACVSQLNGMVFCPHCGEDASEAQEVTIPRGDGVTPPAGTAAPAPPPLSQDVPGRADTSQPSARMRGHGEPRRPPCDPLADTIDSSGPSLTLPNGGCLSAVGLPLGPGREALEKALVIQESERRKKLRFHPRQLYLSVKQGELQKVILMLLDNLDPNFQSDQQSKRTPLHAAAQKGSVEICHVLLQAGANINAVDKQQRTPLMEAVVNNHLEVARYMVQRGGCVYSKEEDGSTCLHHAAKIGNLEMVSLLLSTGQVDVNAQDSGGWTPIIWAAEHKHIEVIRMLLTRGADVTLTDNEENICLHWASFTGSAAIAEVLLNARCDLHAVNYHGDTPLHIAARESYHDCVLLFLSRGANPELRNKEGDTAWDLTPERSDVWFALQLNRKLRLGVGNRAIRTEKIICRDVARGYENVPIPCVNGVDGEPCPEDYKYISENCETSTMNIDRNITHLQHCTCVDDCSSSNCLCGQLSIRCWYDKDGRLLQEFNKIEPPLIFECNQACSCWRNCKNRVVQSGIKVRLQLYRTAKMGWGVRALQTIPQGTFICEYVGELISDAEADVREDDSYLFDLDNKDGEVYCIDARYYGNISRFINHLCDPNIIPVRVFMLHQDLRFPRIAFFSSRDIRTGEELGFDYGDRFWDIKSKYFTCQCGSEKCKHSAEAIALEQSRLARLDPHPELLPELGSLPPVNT
How it was run: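 G9a (20 nM) preincubated 15 min RT with compounds, then 500 nM biotinylated H3K9 peptide and 20 uM SAM added; 2 h RT reaction. Monomethyl-H3K9 product detected by AlphaScreen with anti-H3K9me1 antibody, streptavidin donor and anti-rabbit IgG acceptor beads.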
% is scaled to controls: 0 for no effect and ±100 for the full control effect; potency is read from the fitted curve at half-maximal effect; tags tell the direction and shape of the fitted curve.

SMILES	Potency	activity, negative = inhibition
CCN(CC)CCNC(=O)c1cccc(NC(=O)C(=O)c2cc(Br)ccc2NC(C)=O)c1	inconclusive: 79.4 µM [inhibitor, partial curve, poor fit]	–
Cc1ccc(CN2CCNC(=O)C2CC(=O)NCc2cc(C)n(C)n2)cc1 (centres undefined)	active: 79.4 µM	–
O=C(CN1C(=O)COc2ccc(S(=O)(=O)N3CCCCCC3)cc21)NCCc1ccccc1	–	inactive: -26.6%
CCOC(=O)c1c(NC(NC(C)=O)C(Cl)(Cl)Cl)sc2c1CCCC2 (centres undefined)	inconclusive: 39.8 µM [inhibitor, single point]	–
Cc1ccc(NC(=O)N2CCN(C)c3ncccc32)cc1C	–	inactive: -6.46%
Cc1cccc(C(=O)NC(=S)Nc2ccc(S(=O)(=O)N3CCN(C)CC3)cc2)c1	–	inconclusive: -70.4% [inhibitor]
CNC(=O)NC(=S)NC(=O)c1ccc(OC)cc1	–	inactive: 16.2% [at 12.7 µM]
COCCn1c(SCC(=O)N(C)c2c(N)n(Cc3ccccc3)c(=O)[nH]c2=O)nnc1-c1cccc(C)c1	inconclusive: 44.7 µM [inhibitor, partial curve]	–
CCCCc1oc2c(c(=O)c1C)C(=O)CC(c1ccccc1)C2 (centres undefined)	inconclusive: 56.2 µM [inhibitor, partial curve]	–
O=C(c1cc(S(=O)(=O)Nc2ccccc2F)c(Cl)cc1Cl)N1CCN(CCO)CC1	inconclusive: 79.4 µM [inhibitor, single point]	–
COc1ccc(Cl)cc1-c1ccc(C(=O)O)s1	–	inactive: 6% [at 102 µM]
Cc1ccc(-n2c(=O)c3sccc3n(CC(=O)NCc3ccco3)c2=O)cc1	active: 79.4 µM	–
O=C(NCCC(=O)N(CCc1ccccc1)Cc1ccccc1)c1ccc([N+](=O)[O-])cc1	–	inactive: 9.64% [at 0.501 µM]
CCCOc1ccc(C(=O)CCN2CCCCC2)cc1	active: 17.8 µM	–
COc1ccc(Cn2nnnc2CN2CCc3ccccc32)cc1	inconclusive: 2.51 µM [inhibitor, partial curve, poor fit]	–
O=C(CCl)NC(Cc1ccccc1)c1ccccc1 (centres undefined)	–	inactive: -29.6% [at 102 µM]
O=C(NCCCCc1ccccc1)C1CCCC1	inconclusive: 89.1 µM [inhibitor, partial curve, poor fit]	–
CCCCNc1ccc(C(CC(N)=O)NC(=O)Cc2cccc3ccccc23)cc1[N+](=O)[O-] (centres undefined)	–	inactive: -8.34% [at 12.7 µM]
NC(=O)COc1cccc2cccnc12	active: 44.7 µM	–
COc1ccc(Cc2nn3c(-c4ccccc4OC)nnc3s2)cc1	inconclusive: 2.82 µM [inhibitor, partial curve, poor fit]	–
CCOC(=O)CCn1c(CC(=O)OCC)nc2ccccc21	active: 50.1 µM	–
C#CCOCCOCCOCCNc1nc(N2CCN(C(=O)Cn3cc(CC(C)O)nn3)CC2)nc(N2CCN(C(=O)[C@H](CCCCN)n3cc(CCC(=O)O)nn3)CC2)n1 (some centres undefined)	active: 50.1 µM	–
CS/C(N)=N/N=C/c1c(O)ccc2ccccc12	active: 11.2 µM	–

SMILES	Potency	activity, negative = inhibition
CCOc1ccc(NC(=O)c2cc3cc4cc(OC)ccc4nc3s2)cc1	–	inactive: 3.3%
O=C1/C(=C/c2ccc([N+](=O)[O-])cc2)CCC1C1CCCC1 (centres undefined)	inconclusive: 0.794 µM [inhibitor, single point]	–
COc1cc(OC)cc(C(=O)NC(C(=O)Nc2ccc3c(c2)OCO3)C(C)C)c1 (centres undefined)	inconclusive: 28.2 µM [inhibitor, single point]	–
CC(=O)Nc1ccc(-c2nnc(SCC(=O)c3ccc4c(c3)Cc3ccccc3-4)n2C)cc1	active: 22.4 µM	–
CSc1ccc(NC(=O)NCCCN2CCC(Cc3ccccc3)CC2)cc1	inconclusive: 70.8 µM [inhibitor, single point]	–
Cc1ccc(S(=O)(=O)c2cn(CC(=O)Nc3ccc4c(c3)OCO4)c3ccccc3c2=O)cc1C	inconclusive: 1.78 µM [inhibitor, partial curve, poor fit]	–
COc1ccc(CN2CCc3ccc(NC(=O)CCc4ccccc4OC)cc3C2)c(O)c1	inconclusive: 50.1 µM [inhibitor, single point]	–
COc1ccc(CCNC(=O)c2sc(=S)n(C)c2N)cc1	inconclusive: 3.55 µM [inhibitor, single point]	–
O=c1c2cccnc2n(Cc2cccc(F)c2)c(=O)n1Cc1ccccc1Cl	–	inactive: 43.8%
COc1cccc(C2CC3(CC(C)(C)NC(=S)N3)Oc3cc(O)ccc32)c1 (centres undefined)	inconclusive: 39.8 µM [inhibitor, single point]	–
Cc1cc(C)nc(NS(=O)(=O)c2ccc(NC(=O)CN3C(=O)S/C(=C\c4ccccc4)C3=O)cc2)n1	inconclusive: 3.55 µM [inhibitor, partial curve, poor fit]	–
COC(=O)C(C)Sc1nnc(Cc2cc(=O)[nH]c(=O)[nH]2)n1-c1cc(C)ccc1C (centres undefined)	inconclusive: 89.1 µM [inhibitor, single point]	–
COCCNC(=S)Nc1cc(OC)c(OC)cc1C#N	–	inactive: -119%
Cc1ccc(N=C2NC(=O)CS2)c(C)c1	–	inactive: -0.879%
O=C(Nc1ncn[nH]1)c1ccc(Cl)c(Cl)c1	inconclusive: 8.91 µM [inhibitor, partial curve, poor fit]	–
Cc1cc(C)cc(NC(=O)CSc2nc3ccccc3nc2N2CCCC2)c1	inconclusive: 89.1 µM [inhibitor, single point]	–
Cc1ccccc1N=C1SCCN1C(=O)CN1C(=O)NC2(CCCC2)C1=O	inconclusive: 56.2 µM [inhibitor, partial curve, poor fit]	–
O=C(CN1C(=O)c2cccc3cccc1c23)NCc1cccnc1	–	inactive: 2.46% [at 102 µM]
O=C(O)c1ccccc1Oc1ccc(Oc2ccccc2)cc1	–	inactive: -9.91% [at 102 µM]
S=c1[nH]nc(-c2ccccc2)o1	inconclusive: 3.16 µM [inhibitor, full curve, poor fit]	–
COc1ccc(C2/C(=C(/O)c3ccc(C)cc3)C(=O)C(=O)N2C)cc1 (centres undefined)	inconclusive: 35.5 µM [inhibitor, full curve, poor fit]	–
CCCCn1c(N2CCC(Cc3ccccc3)CC2)nc2c1c(=O)[nH]c(=O)n2C	inconclusive: 39.8 µM [inhibitor, single point]	–
C/C(N)=C(/C#N)C(=O)COC(=O)c1ccccc1C(=O)c1ccc(C)cc1	inconclusive: 56.2 µM [inhibitor, partial curve, poor fit]	–

SMILES	Potency	activity, negative = inhibition
C=C(C)CN(CC)C(=O)CC1C(=O)NCCN1C (centres undefined)	inconclusive: 89.1 µM [inhibitor, partial curve, poor fit]	–
CC(=O)Nc1ccc(NC(=O)COC(=O)c2c(-c3ccccc3)noc2C)cc1	–	inactive: -6.95% [at 12.7 µM]
Cc1ccc(C2CC(=O)Nc3cc4c(cc32)OCO4)o1 (centres undefined)	–	inconclusive: -87.5% [inhibitor]
CC(NC(N)=O)C(=O)Nc1ccc(Cl)c(S(=O)(=O)Nc2ccc(Br)cc2)c1 (centres undefined)	inconclusive: 44.7 µM [inhibitor, partial curve]	–
CC(/C=N/NC(=O)CSc1nnc(SCc2ccccc2)s1)=C\c1ccco1	active: 11.2 µM	–
COc1cccc(COC(=O)c2ccc3c(=O)n4c(nc3c2)CCC4)c1OC	inconclusive: 39.8 µM [inhibitor, partial curve, poor fit]	–
COc1ccc(-c2cc(C(=O)c3c(N)n(C)c(=O)n(C)c3=O)c3ccccc3n2)cc1	inconclusive: 0.447 µM [inhibitor, full curve, poor fit]	–
Cc1cc(=O)n(C)c(=O)n1CCCNc1ccccc1	active: 15.8 µM	–
N#C/C(=C(/O)CN1CCOCC1)c1nc2ccccc2s1	–	inactive: -32% [at 12.7 µM]
COc1ccc(C2C(C#N)=C(C)NC3=C2C(=O)c2ccccc23)cc1 (centres undefined)	inconclusive: 2.24 µM [inhibitor, partial curve, poor fit]	–
Nc1c(C(=O)Nc2ccccc2)c2nc3ccccc3nc2n1-c1ccc(O)cc1	–	inactive: 25.6% [at 102 µM]
COc1ccc(C2CC(=O)Oc3ccc(O)cc32)cc1 (centres undefined)	active: 35.5 µM	–
CN1CCN(C(=O)NC2CCCCC2)CC1	active: 8.91 µM	–
O=C(O)Cc1ccc(NC(=O)C2CC=CCC2C(=O)O)cc1 (centres undefined)	inconclusive: 25.1 µM [inhibitor, single point]	–
CS(=O)(=O)N(CCc1ccccc1)CC(=O)N1CCN(Cc2ccc3c(c2)OCO3)CC1	inconclusive: 35.5 µM [inhibitor, single point]	–
COc1ccc(C(=O)NC(=S)NCc2ccco2)cc1OC	inconclusive: 39.8 µM [inhibitor, single point]	–
CC1(C)CC(=O)C2=C(C1)OC(N)=C(C#N)C2c1ccc[nH]1 (centres undefined)	inconclusive: 50.1 µM [inhibitor, partial curve]	–
Cc1ccccc1NC(=S)Nc1ccccn1	inconclusive: 44.7 µM [inhibitor, partial curve, poor fit]	–
CC(=O)c1cccc(Nc2ncnc3ccc(Br)cc23)c1	inconclusive: 44.7 µM [inhibitor, partial curve, poor fit]	–
CCC1(c2ccc(F)cc2)NC(=O)N(CC(=O)c2cc(C)n(C3CC3)c2C)C1=O (centres undefined)	active: 50.1 µM	–
CC1=CC(=NOC(=O)c2cccc([N+](=O)[O-])c2)C=C(C)C1=O	inconclusive: 2.51 µM [inhibitor, partial curve, poor fit]	–
Cc1ccc2c(c1)-c1cc(C)nn1C(c1ccc3c(c1)OCO3)N2 (centres undefined)	inconclusive: 2 µM [inhibitor, full curve]	–
O=C(/C=C/c1ccc(F)cc1)NC(=S)N1CCCCC1c1cccnc1 (centres undefined)	inconclusive: 28.2 µM [inhibitor, partial curve, poor fit]	–
